Data on 56 compounds can be found in article PMC4336329 (PLoS ONE, 2015).

About 14,000 (4.5%) of roughly 310,000 compounds showed an effect of 50% or more. The effect is printed as a negative number. The list shows a part of the results.
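Note: peak tail current of the secondary pulse compared with the same well before compound.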

In this test the target is human ether-à-go-go-related gene (hERG) potassium channel (human, UniProt Q12809). Kind of test: primary screen, population patch clamp on CHO cells stably expressing hERG.
Sequence of human ether-à-go-go-related gene (hERG) potassium channel (Q12809 whole entry, looked up): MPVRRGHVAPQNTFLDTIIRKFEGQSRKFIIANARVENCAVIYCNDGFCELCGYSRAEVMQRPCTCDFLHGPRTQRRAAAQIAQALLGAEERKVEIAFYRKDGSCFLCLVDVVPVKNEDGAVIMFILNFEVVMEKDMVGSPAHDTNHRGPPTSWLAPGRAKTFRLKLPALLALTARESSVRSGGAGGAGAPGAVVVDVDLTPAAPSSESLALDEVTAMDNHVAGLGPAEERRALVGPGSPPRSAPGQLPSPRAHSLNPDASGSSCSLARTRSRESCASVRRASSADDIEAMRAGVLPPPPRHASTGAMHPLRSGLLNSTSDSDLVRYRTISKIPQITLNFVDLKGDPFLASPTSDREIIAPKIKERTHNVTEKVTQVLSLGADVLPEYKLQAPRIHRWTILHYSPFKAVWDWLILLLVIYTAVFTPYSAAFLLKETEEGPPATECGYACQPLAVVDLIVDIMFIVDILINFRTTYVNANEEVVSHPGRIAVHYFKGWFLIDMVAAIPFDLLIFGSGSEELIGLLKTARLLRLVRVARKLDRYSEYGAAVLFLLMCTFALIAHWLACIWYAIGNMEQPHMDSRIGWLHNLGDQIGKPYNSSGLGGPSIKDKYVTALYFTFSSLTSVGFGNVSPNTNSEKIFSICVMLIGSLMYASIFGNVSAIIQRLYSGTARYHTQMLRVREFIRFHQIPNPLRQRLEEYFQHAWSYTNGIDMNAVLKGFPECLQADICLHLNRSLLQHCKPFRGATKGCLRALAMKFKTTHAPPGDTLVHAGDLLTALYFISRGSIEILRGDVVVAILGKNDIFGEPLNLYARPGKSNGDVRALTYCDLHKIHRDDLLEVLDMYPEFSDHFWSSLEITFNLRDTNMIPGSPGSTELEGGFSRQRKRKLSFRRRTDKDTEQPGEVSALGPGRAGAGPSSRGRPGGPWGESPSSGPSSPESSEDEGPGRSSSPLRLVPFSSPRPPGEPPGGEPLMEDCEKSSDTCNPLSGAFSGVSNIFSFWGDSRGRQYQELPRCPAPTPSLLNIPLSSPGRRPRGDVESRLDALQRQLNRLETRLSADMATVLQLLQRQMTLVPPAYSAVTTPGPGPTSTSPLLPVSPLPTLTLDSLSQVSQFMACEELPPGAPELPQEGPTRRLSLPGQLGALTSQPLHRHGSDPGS
Take `CN(C)C(=O)COc1ccc(S(=O)(=O)c2ccc(OCC(=O)N(C)C)cc2)cc1`: the “hERG current change (%, negative = inhibition) at 10uM” value is on record as 22.9%. Under `COc1cc(OC)cc(C(=O)O/N=C(\N)c2ccncc2)c1` stands -0.197%; under `O=C(c1ccc(S(=O)(=O)c2ccc(F)cc2)c([N+](=O)[O-])c1)N1CCCCCC1`, -11.6%; under `Cc1ccc(C)c(S(=O)(=O)NCCOc2nc(NC(C)C)nc(NC(C)C)n2)c1`, -32.7%. Under `Cc1cc(OC(=O)c2cccc(C(F)(F)F)c2)c([N+](=O)[O-])c(=O)[nH]1` stands 8.41%. With `COCCn1cc(C(=O)N2CCCC(C)C2)c2c3ccccc3n(C)c2c1=O` (centres unmarked), the “hERG current change (%, negative = inhibition) at 10uM” value is listed as 13.5%. Under `COc1ccc(NC(=O)Cn2nnc(C(=O)NCc3ccccc3)c2N)c(OC)c1` stands -3.13%; under `CCc1nc(SCc2cc(Cl)ccc2OC)n[nH]1`, 5.74%. With `CC1=C(C(=O)Nc2ccccc2C(=O)NC2CCCCC2)SCCO1`, the “hERG current change (%, negative = inhibition) at 10uM” value turned out to be 2.8%.

Turning to `CCOC(=O)c1cnc(SCC(=O)N2CCOCC2)nc1N`, the “hERG current change (%, negative = inhibition) at 10uM” value worked out at 16.4%. Turning to `CCOc1ccc(C(C)=O)cc1CN1C(=O)NC2(CCCCCC2)C1=O`, the “hERG current change (%, negative = inhibition) at 10uM” value is recorded as 3.83%. Under `Cc1ccc2c(c1)cc(C(=O)N1CCN(c3ccccn3)CC1)n2C` stands 5.77%. Then `Cn1c2c(c(=O)n(C)c1=O)C(c1ccccc1Cl)CC(=O)N2` (centres unmarked), with 13.1%; and `CCn1c(=O)n(CCc2ccccc2)c(=O)c2c3c(sc21)CCCC3`, with 1.05%; and `Cc1ccc(-n2c(-c3ccc(Cl)cc3)c[n+]3c2CCC3)cc1.[Br-]`, with -62.4%. As to `CCN1C(=O)C(O)(CC(=O)c2ccc3c(c2)OCCO3)c2ccccc21` (centres unmarked), the “hERG current change (%, negative = inhibition) at 10uM” value is 0.774%. Then `COc1cc(CN2CCCC(C(=O)c3ccc4c5c(cccc35)CC4)C2)cc(OC)c1O` (centres unmarked), with -53%; and `O=C(Cc1ccc(Br)cc1)OCC(=O)c1ccc2c(c1)OCCO2`, with 13.1%.

On to `COc1ccc(C(=O)N2CCC(C(=O)NC3CC3)CC2)cc1`, for which the “hERG current change (%, negative = inhibition) at 10uM” value was 4.25%. As for `CCCCN1C(=O)CCC(C(=O)O)C1c1ccccc1` (centres unmarked), the “hERG current change (%, negative = inhibition) at 10uM” value is given as -2.13%.

Consider `C/C(CC(=O)Nc1ccccc1Cl)=N\NC(=O)C(=O)NCCO`, for which the “hERG current change (%, negative = inhibition) at 10uM” value is listed as 6.65%. For `CCOC(=O)c1c(NC(=O)C2CC(Cl)=CCC2C(=O)O)sc2c1CCCCC2` (centres unmarked), the “hERG current change (%, negative = inhibition) at 10uM” value was found to be 0.267%. In the case of `O=C(CCN=C1NS(=O)(=O)c2ccccc21)OCc1nnc(-c2ccccc2)o1`, the “hERG current change (%, negative = inhibition) at 10uM” value is 2.39%. Under `CCOC(=O)C1=C(COC(=O)CNC(=O)c2cccc(C)c2)NC(=O)NC1C` (centres unmarked) stands 0.589%; under `C=CCOc1ccc(Br)cc1CNC(C)(C)C.Cl`, -14.7%.

Consider `COc1ccc(N2CCN(C(=O)CC34CC5CC(CC(C5)C3)C4)CC2)c([N+](=O)[O-])c1`, for which the “hERG current change (%, negative = inhibition) at 10uM” value was determined as 0.229%. Consider `Cn1c(=O)c2sccc2n2c(CCCC(=O)Nc3ccccc3)nnc12`, for which the “hERG current change (%, negative = inhibition) at 10uM” value was -11.8%. Under `Cc1cc(C)nc(N/C(=N\S(=O)(=O)Cc2ccccc2)Nc2ccccc2Br)n1` stands 7.93%; under `C=CCn1c(-c2csc3ccccc23)n[nH]c1=S`, 18.3%; under `CCCCc1n(CC(=O)c2ccc(Cl)cc2)c2ccccc2[n+]1C.[Br-]`, 8.02%. For the compound `S=C(c1cccs1)N1CCCC1`, the “hERG current change (%, negative = inhibition) at 10uM” value is reported as 14.1%. `Cc1ccc(C)c(NC(=O)CN(C)C(=O)/C=C/c2ccco2)c1`: the “hERG current change (%, negative = inhibition) at 10uM” value was 15.7%. With `C(=N\Nc1nc(N2CCOCC2)nc(N2CCOCC2)n1)/c1cccnc1`, the “hERG current change (%, negative = inhibition) at 10uM” value was -12.1%.

In the case of `COc1ccc(C)cc1S(=O)(=O)N(C)CC(=O)Nc1ccc2c(c1)OCCO2`, the “hERG current change (%, negative = inhibition) at 10uM” value was -6.52%.

In the case of `Clc1ccc(C2N3CCCN23)c(Cl)c1` (centres unmarked), the “hERG current change (%, negative = inhibition) at 10uM” value is listed as 20.4%. Consider `COc1cc(C)nc(NCc2ccccc2)n1`, for which the “hERG current change (%, negative = inhibition) at 10uM” value was 10.9%.

Turning to `COc1ccccc1N1CCN(S(=O)(=O)c2c(C(=O)N3CCOCC3)c(C)n(C)c2C)CC1`, the “hERG current change (%, negative = inhibition) at 10uM” value is listed as 15.6%. Then `CC(C)(C)OC(=O)NNC(=O)NC12CC3CC(CC(C3)C1)C2`, with -4.97%. With `Cc1cccc(N=Cc2cc3c(cc2[N+](=O)[O-])OCO3)c1`, the “hERG current change (%, negative = inhibition) at 10uM” value was 15.6%. As to `CC1CC(C)(C)Nc2ccc(OC(=O)c3ccco3)cc21` (centres unmarked), the “hERG current change (%, negative = inhibition) at 10uM” value was 8.5%. For the compound `COc1ccc(N(CC(=O)Nc2ccc(S(=O)(=O)N3CCCC3)cc2)S(C)(=O)=O)cc1OC`, the “hERG current change (%, negative = inhibition) at 10uM” value came to 2.29%. Regarding `O=C(CNC(=O)c1ccccc1)NCCc1ccc(O)c(O)c1`, the “hERG current change (%, negative = inhibition) at 10uM” value worked out at 1.15%. Under `O=C(NCCN1CCN(c2cccc(Cl)c2)CC1)Nc1ccccc1` stands -35.1%; under `O=S(=O)(c1ccccc1)c1cc(O)ccc1O`, 16.9%; under `O=C1COc2ccc(S(=O)(=O)CCC(=O)N3CCN(c4cccc(Cl)c4)CC3)cc2N1`, -58.4%. Then `O=C(CCCCn1c(=O)[nH]c2ccsc2c1=O)NCC1CCCO1` (centres unmarked), with 4.17%; and `NC(=O)NC(=O)CN1C(=O)NC(c2ccccc2)(c2ccccc2)C1=O`, with 4.8%; and `COc1ccc(NC(=O)NNC(=O)c2ccccc2-n2cccc2)cc1OC`, with 25.4%. Under `CC(C)Cn1c(Br)nc2c1c(=O)n(CCC#N)c(=O)n2C` stands -23.8%; under `CCc1ccc(CN2C(=O)c3ccccc3C2C(=O)NCC2CCCO2)cc1` (centres unmarked), 8.88%. In the case of `O=C1/C(=C\c2ccccc2)C2OCC=C3CN4CCC56c7ccccc7N1C5C2C3CC46` (centres unmarked), the “hERG current change (%, negative = inhibition) at 10uM” value is -53.4%. Under `O=C(Cn1cnc2ccccc2c1=O)NCCC(=O)Nc1ccccc1C(F)(F)F` stands 13.9%.

As for `CS(=O)(=O)N(CC(=O)N1CCN(Cc2ccccc2)CC1)c1ccc(F)cc1`, the “hERG current change (%, negative = inhibition) at 10uM” value is recorded as -3.35%. For `Cc1ccc2[nH]c(=O)c3cc(C(=O)N(C)c4ccccc4C)sc3c2c1`, the “hERG current change (%, negative = inhibition) at 10uM” value was 12.4%.

In the case of `Cc1cc(C)nc(SCc2nnc(SCC(=O)Nc3nc(-c4ccccc4)cs3)n2-c2ccccc2)n1`, the “hERG current change (%, negative = inhibition) at 10uM” value is given as -6.47%.

As to `CC1=NN(C(=O)c2ccc(Cn3cc(Br)c([N+](=O)[O-])n3)o2)C(O)(C(F)(F)F)C1` (centres unmarked), the “hERG current change (%, negative = inhibition) at 10uM” value is reported as -16.6%.
